Reference: the supplement of paper PMC8728848
Some of the results follow.

What was measured:
Test in all cases: glycan array binding signal (z-score within array); higher = stronger binding
Settings in all cases: glycan notation: IUPAC condensed, linker removed
[1] = target: Gal(b1-3)GlcNAc(b1-6)[Gal(b1-3)]GalNAc
How it was run: (§1)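 Arrays were curated from the Consortium for Functional Glycomics database, 3228 in total, and kept only where the protein sequence was available. Binding is expressed as a within-array Z-score. This score was averaged across arrays of the same protein sequence at different concentrations or buffers and across linkers, and negative values can be read as non-binding.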

Gal(b1-3)GlcNAc6S = target: Gal(b1-3)GlcNAc6S
How it was run: as §1

[2] = target: Gal(b1-3)[Fuc(a1-4)]GlcNAc
How it was run: as §1

[3] = target: Gal(b1-3)[Fuc(a1-4)]GlcNAc(b1-2)Man
How it was run: as §1

[4] = target: Gal(b1-3)[Fuc(a1-4)]GlcNAc(b1-2)Man(a1-3)[Gal(b1-3)[Fuc(a1-4)]GlcNAc(b1-2)Man(a1-6)]Man(b1-4)GlcNAc(b1-4)[Fuc(a1-6)]GlcNAc
How it was run: as §1

[5] = target: Gal(b1-3)[Fuc(a1-4)]GlcNAc(b1-3)Gal(b1-3)[Fuc(a1-4)]GlcNAc
How it was run: as §1

[6] = target: Gal(b1-3)[Fuc(a1-4)]GlcNAc(b1-3)Gal(b1-4)[Fuc(a1-3)]GlcNAc
How it was run: as §1

[7] = target: Gal(b1-3)[Fuc(a1-4)]GlcNAc(b1-6)GalNAc
How it was run: as §1

[8] = target: Gal(b1-3)[GlcNAc(b1-6)]GalNAc
How it was run: as §1

[9] = target: Gal(b1-3)[Neu5Ac(a2-6)]GalNAc
How it was run: as §1

[10] = target: Gal(b1-3)[Neu5Ac(a2-6)]GlcNAc(b1-4)Gal(b1-4)Glc
How it was run: as §1

[11] = target: Gal(b1-3)[Neu5Ac(b2-6)]GalNAc
How it was run: as §1

Gal(b1-4)Gal = target: Gal(b1-4)Gal
How it was run: as §1

[12] = target: Gal(b1-4)GalNAc(a1-3)[Fuc(a1-2)]Gal(b1-4)GlcNAc
How it was run: as §1

[13] = target: Gal(b1-4)GalNAc(b1-3)[Fuc(a1-2)]Gal(b1-4)GlcNAc
How it was run: as §1

Gal(b1-4)Glc = target: Gal(b1-4)Glc
How it was run: as §1

Gal(b1-4)Glc6S = target: Gal(b1-4)Glc6S
How it was run: as §1

Gal(b1-4)GlcNAc = target: Gal(b1-4)GlcNAc
How it was run: as §1

[14] = target: Gal(b1-4)GlcNAc(a1-6)Gal(b1-4)GlcNAc
How it was run: as §1

Gal(b1-4)GlcNAc(b1-2)Man = target: Gal(b1-4)GlcNAc(b1-2)Man
How it was run: as §1

[15] = target: Gal(b1-4)GlcNAc(b1-2)Man(a1-3)Man(b1-4)GlcNAc(b1-4)GlcNAc
How it was run: as §1

[16] = target: Gal(b1-4)GlcNAc(b1-2)Man(a1-3)[Gal(b1-4)GlcNAc(b1-2)Man(a1-6)]Man(b1-4)GlcNAc(b1-4)GlcNAc
How it was run: as §1

[17] = target: Gal(b1-4)GlcNAc(b1-2)Man(a1-3)[Gal(b1-4)GlcNAc(b1-2)Man(a1-6)]Man(b1-4)GlcNAc(b1-4)[Fuc(a1-6)]GlcNAc
How it was run: as §1

[18] = target: Gal(b1-4)GlcNAc(b1-2)Man(a1-3)[Gal(b1-4)GlcNAc(b1-2)Man(a1-6)][Gal(b1-4)GlcNAc(b1-4)]Man(b1-4)GlcNAc(b1-4)[Fuc(a1-6)]GlcNAc
How it was run: as §1

[19] = target: Gal(b1-4)GlcNAc(b1-2)Man(a1-3)[Gal(b1-4)GlcNAc(b1-2)Man(a1-6)][GlcNAc(b1-4)]Man(b1-4)GlcNAc(b1-4)[Fuc(a1-6)]GlcNAc
How it was run: as §1

[20] = target: Gal(b1-4)GlcNAc(b1-2)Man(a1-3)[GlcNAc(b1-2)Man(a1-6)]Man(b1-4)GlcNAc(b1-4)GlcNAc
How it was run: as §1

[21] = target: Gal(b1-4)GlcNAc(b1-2)Man(a1-3)[GlcNAc(b1-4)][Gal(b1-4)GlcNAc(b1-2)Man(a1-6)]Man(b1-4)GlcNAc(b1-4)GlcNAc
How it was run: as §1

[22] = target: Gal(b1-4)GlcNAc(b1-2)Man(a1-3)[Man(a1-6)]Man(b1-4)GlcNAc(b1-4)GlcNAc
How it was run: as §1

[23] = target: Gal(b1-4)GlcNAc(b1-2)Man(a1-6)Man(b1-4)GlcNAc(b1-4)GlcNAc
How it was run: as §1

[24] = target: Gal(b1-4)GlcNAc(b1-2)Man(a1-6)[GlcNAc(b1-2)Man(a1-3)]Man(b1-4)GlcNAc(b1-4)GlcNAc
How it was run: as §1

[25] = target: Gal(b1-4)GlcNAc(b1-2)Man(a1-6)[Man(a1-3)]Man(b1-4)GlcNAc(b1-4)GlcNAc
How it was run: as §1

[26] = target: Gal(b1-4)GlcNAc(b1-2)[Gal(b1-4)GlcNAc(b1-4)]Man(a1-3)[Gal(b1-4)GlcNAc(b1-2)Man(a1-6)]Man(b1-4)GlcNAc(b1-4)GlcNAc
How it was run: as §1

[27] = target: Gal(b1-4)GlcNAc(b1-2)[Gal(b1-4)GlcNAc(b1-4)]Man(a1-3)[Gal(b1-4)GlcNAc(b1-2)[Gal(b1-4)GlcNAc(b1-6)]Man(a1-6)]Man(b1-4)GlcNAc(b1-4)GlcNAc
How it was run: as §1

[28] = target: Gal(b1-4)GlcNAc(b1-2)[Gal(b1-4)GlcNAc(b1-4)]Man(a1-3)[GlcNAc(b1-4)][Gal(b1-4)GlcNAc(b1-2)Man(a1-6)]Man(b1-4)GlcNAc(b1-4)GlcNAc
How it was run: as §1

[29] = target: Gal(b1-4)GlcNAc(b1-2)[Gal(b1-4)GlcNAc(b1-4)]Man(a1-3)[GlcNAc(b1-4)][Gal(b1-4)GlcNAc(b1-2)[Gal(b1-4)GlcNAc(b1-6)]Man(a1-6)]Man(b1-4)GlcNAc(b1-4)GlcNAc
How it was run: as §1

[30] = target: Gal(b1-4)GlcNAc(b1-2)[Gal(b1-4)GlcNAc(b1-6)]Man(a1-6)[Gal(b1-4)GlcNAc(b1-2)Man(a1-3)]Man(b1-4)GlcNAc(b1-4)GlcNAc
How it was run: as §1

[31] = target: Gal(b1-4)GlcNAc(b1-2)[Gal(b1-4)GlcNAc(b1-6)]Man(a1-6)[Gal(b1-4)GlcNAc(b1-2)Man(a1-3)]Man(b1-4)GlcNAc(b1-4)[Fuc(a1-6)]GlcNAc
How it was run: as §1

[32] = target: Gal(b1-4)GlcNAc(b1-2)[Gal(b1-4)GlcNAc(b1-6)]Man(a1-6)[GlcNAc(b1-4)][Gal(b1-4)GlcNAc(b1-2)Man(a1-3)]Man(b1-4)GlcNAc(b1-4)GlcNAc
How it was run: as §1

[33] = target: Gal(b1-4)GlcNAc(b1-2)[Gal(b1-4)GlcNAc(b1-6)]Man(a1-6)[GlcNAc(b1-4)][Gal(b1-4)GlcNAc(b1-2)[Gal(b1-4)GlcNAc(b1-4)]Man(a1-3)]Man(b1-4)GlcNAc(b1-4)[Fuc(a1-6)]GlcNAc
How it was run: as §1

[34] = target: Gal(b1-4)GlcNAc(b1-3)Gal(b1-3)GalNAc
How it was run: as §1

[35] = target: Gal(b1-4)GlcNAc(b1-3)Gal(b1-3)GlcNAc
How it was run: as §1

[36] = target: Gal(b1-4)GlcNAc(b1-3)Gal(b1-4)Glc
How it was run: as §1

[37] = target: Gal(b1-4)GlcNAc(b1-3)Gal(b1-4)GlcNAc
How it was run: as §1

[38] = target: Gal(b1-4)GlcNAc(b1-3)Gal(b1-4)GlcNAc(b1-2)Man(a1-3)[Gal(b1-4)GlcNAc(b1-3)Gal(b1-4)GlcNAc(b1-2)Man(a1-6)]Man(b1-4)GlcNAc(b1-4)GlcNAc
How it was run: as §1

[39] = target: Gal(b1-4)GlcNAc(b1-3)Gal(b1-4)GlcNAc(b1-2)Man(a1-3)[Gal(b1-4)GlcNAc(b1-3)Gal(b1-4)GlcNAc(b1-2)Man(a1-6)]Man(b1-4)GlcNAc(b1-4)[Fuc(a1-6)]GlcNAc
How it was run: as §1

B1: Cohesin-hDC-ASGPR (Homo sapiens) (protein)
chain: LDDLDAVRIKVDTVNAKPGDTVRIPVRFSGIPSKGIANCDFVYSYDPNVLEIIEIEPGDIIVDPNPDKSFDTAVYPDRKIIVFLFAEDSGTGAYAITKDGVFATIVAKVKEGAPNGLSVIKFVEVGGFANNDLVEQKTQFFDGGANVGDTTEPATPTTPVTTPTTTDDLDAASQNSKFQRDLVTLRTDFSNFTSNTVAEIQALTSQGSSLEETIASLKAEVEGFKQERQAGVSELQEHTTQKAHLGHCPHCPSVCVPVHSEMLLRVQQLVQDLKKLTCQVATLNNNASTEGTCCPVNWVEHQDSCYWFSHSGMSWAEAEKYCQLKNAHLVVINSREEQNFVQKYLGSAYTWMGLSDPEGAWKWVDGTDYATGFQNWKPGQPDDWQGHGLGGGEDCAHFHPDGRWNDDVCQRPYHWVCEAGLGQTSQESHHHHHH
glycan array binding signal (z-score) [1]: -0.272
glycan array binding signal (z-score) (Gal(b1-3)GlcNAc6S): -0.504
glycan array binding signal (z-score) [2]: -0.416
glycan array binding signal (z-score) [3]: -0.419
glycan array binding signal (z-score) [4]: -0.157
glycan array binding signal (z-score) [5]: -0.003
glycan array binding signal (z-score) [6]: -0.436
glycan array binding signal (z-score) [7]: 2.08
glycan array binding signal (z-score) [8]: 0.863
glycan array binding signal (z-score) [9]: -0.49
glycan array binding signal (z-score) [10]: -0.513
glycan array binding signal (z-score) [11]: -0.51
glycan array binding signal (z-score) (Gal(b1-4)Gal): -0.49
glycan array binding signal (z-score) [12]: -0.48
glycan array binding signal (z-score) [13]: -0.392
glycan array binding signal (z-score) (Gal(b1-4)Glc): -0.433
glycan array binding signal (z-score) (Gal(b1-4)Glc6S): -0.475
glycan array binding signal (z-score) (Gal(b1-4)GlcNAc): -0.456
glycan array binding signal (z-score) [14]: -0.432
glycan array binding signal (z-score) (Gal(b1-4)GlcNAc(b1-2)Man): 2.57
glycan array binding signal (z-score) [15]: -0.448
glycan array binding signal (z-score) [16]: -0.447
glycan array binding signal (z-score) [17]: -0.459
glycan array binding signal (z-score) [18]: -0.477
glycan array binding signal (z-score) [19]: -0.522
glycan array binding signal (z-score) [20]: -0.293
glycan array binding signal (z-score) [21]: -0.516
glycan array binding signal (z-score) [22]: 0.323
glycan array binding signal (z-score) [23]: -0.479
glycan array binding signal (z-score) [24]: 0.081
glycan array binding signal (z-score) [25]: -0.496
glycan array binding signal (z-score) [26]: -0.523
glycan array binding signal (z-score) [27]: -0.517
glycan array binding signal (z-score) [28]: -0.518
glycan array binding signal (z-score) [29]: -0.508
glycan array binding signal (z-score) [30]: -0.452
glycan array binding signal (z-score) [31]: -0.504
glycan array binding signal (z-score) [32]: -0.478
glycan array binding signal (z-score) [33]: -0.511
glycan array binding signal (z-score) [34]: -0.502
glycan array binding signal (z-score) [35]: -0.499
glycan array binding signal (z-score) [36]: -0.457
glycan array binding signal (z-score) [37]: -0.46
glycan array binding signal (z-score) [38]: 0.113
glycan array binding signal (z-score) [39]: -0.279
